Data: patent publication US20210221784A1, “COMPOUNDS AND COMPOSITIONS FOR THE TREATMENT OF PAIN” (Université de Strasbourg, priority 2018, published 2021)
A number of entries come with more than one value. This list holds those alone. There may be further records. Values that stand side by side seem to repeat one measurement on other runs, samples or individuals. Brackets tell where a record comes from. Letters count within one entry.

Target: T1, hNPFFR2 (Homo sapiens, UniProt Q9Y5X5)
T1 construct: expressed in transfected cells; membranes
T1 sequence (Q9Y5X5 whole entry): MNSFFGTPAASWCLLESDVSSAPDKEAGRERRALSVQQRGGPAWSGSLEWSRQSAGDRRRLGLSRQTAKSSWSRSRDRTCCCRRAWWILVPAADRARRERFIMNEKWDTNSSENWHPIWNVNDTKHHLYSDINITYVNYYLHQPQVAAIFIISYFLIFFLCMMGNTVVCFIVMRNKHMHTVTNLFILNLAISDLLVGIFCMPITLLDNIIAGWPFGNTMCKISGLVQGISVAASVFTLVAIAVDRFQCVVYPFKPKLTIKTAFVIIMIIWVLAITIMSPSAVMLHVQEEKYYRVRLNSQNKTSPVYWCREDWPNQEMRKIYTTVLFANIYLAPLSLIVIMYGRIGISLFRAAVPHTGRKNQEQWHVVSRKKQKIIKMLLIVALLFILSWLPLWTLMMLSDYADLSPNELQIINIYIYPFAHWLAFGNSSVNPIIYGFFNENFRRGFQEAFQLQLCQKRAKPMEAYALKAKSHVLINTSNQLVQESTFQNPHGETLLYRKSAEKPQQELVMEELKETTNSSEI
Assay: Radioligand binding competition, membranes from CHO cells expressing hNPFFR2
Conditions: 0.015 nM [D-Tyr1[125I], N-MePhe3]-NPFF, 1 hr at 25° C., read-out: NPFF2-R Ki

## Nc1ccc(-c2ccccc2)c(N)n1 [Compound 1a, 3-phenylpyridine-2,6-diamine]
  Ki: 7.3 µM [table A] and 7.3 nM [table B]
